# Reference: the GPR68 mutational scans of Howard et al. (2025)
# B1: GPR68, Q15743 (parent)
# chain: MGNITADNSSMSCTIDHTIHQTLAPVVYVTVLVVGFPANCLSLYFGYLQIKARNELGVYLCNLTVADLFYICSLPFWLQYVLQHDNWSHGDLSCQVCGILLYENIYISVGFLCCISVDRYLAVAHPFRFHQFRTLKAAVGVSVVIWAKELLTSIYFLMHEEVIEDENQHRVCFEHYPIQAWQRAINYYRFLVGFLFPICLLLASYQGILRAVRRSHGTQKSRKDQIQRLVLSTVVIFLACFLPYHVLLLVRSVWEASCDFAKGVFNAYHFSLLLTSFNCVADPVLYCFVSETTHRDLARLRGACLAFLTCSRTGRAREAYPLGAPEASGKSGAQGEEPELLTKLHPAFQTPNSPGSGGFPTGRLA
# How the values were obtained:
# [1] = variants of: B1; test: cAMP reporter score (Enrich2 score, wild type = 0); higher = more signal; HEK293T, FACS bins
# [2] = variants of: B1; test: surface expression score (Enrich2 score, wild type = 0); higher = more signal; HEK293T, FACS bins
Variant,cAMP reporter score ([1]; pH 5.5),cAMP reporter score ([1]; pH 6),"cAMP reporter score ([1]; pH 6, modulator: ogerin)","cAMP reporter score ([1]; pH 6.5, modulator: ogerin)",surface expression score [2]
H125_P126insGSG,-1.68,-0.559,–,–,–
P126_F127del,-1.09,-1.53,-1.56,-0.417,-2.25
Q131del,-1.14,-1.39,-0.84,-1.21,-2.49
P126_F127insGS,-0.965,-1.67,–,-0.319,-2.86
L135del,-0.391,-0.806,–,-0.95,–
H130_Q131del,-1.34,-0.865,-1.96,-0.488,-2.56
F132P,-0.712,-1.6,–,-0.111,-1.3
F132R,-0.843,-1.06,-0.599,-1.45,-2.22
F132H,-0.924,-1.51,-1.55,-1.3,-2.67
F132Q,-1.03,-0.439,-1.21,-0.449,–
F132T,-0.864,-0.609,-0.184,-0.328,–
F132L,-0.369,-0.511,-0.091,-0.198,-0.572
F132I,0.831,0.28,0.775,0.2,-0.119
F132G,-0.152,–,-1.43,-0.048,–
F132M,0.816,-1.19,0.438,-0.648,-0.188
F132D,-1.24,-1.42,-1.2,-0.657,–
F132N,-1.69,-2.95,-1.33,-0.988,–
F132V,0.163,-0.736,0.221,0.252,-0.625
F132K,-1.44,-1.76,-1.27,-1.62,-2
F132W,-0.077,-0.794,0.062,-0.887,-0.665
F132S,-1.06,-0.353,-0.985,-1.2,-1.45
F132C,-0.855,-0.28,-0.564,-0.624,-0.921
F132A,0.541,-1.67,0.103,–,0.706

Variant,cAMP reporter score ([1]; pH 5.5),cAMP reporter score ([1]; pH 6),"cAMP reporter score ([1]; pH 6, modulator: ogerin)","cAMP reporter score ([1]; pH 6.5, modulator: ogerin)",surface expression score [2]
A124_P126del,-1.79,-2.08,-1.92,-0.117,-2.13
T134_K136del,-1.22,-1.07,-1.36,-1.9,-2.73
F127_R128del,-1.28,-1.06,-1.78,-1.42,-2.22
R128Y,-1.05,-1.89,-1.57,–,–
R128G,0.419,-0.12,0.588,-0.753,–
R128I,-1.01,1.93,–,-1.23,-2.25
R128V,-0.625,–,-0.71,-0.99,-0.428
R128H,2.38,-1.15,0.824,-0.611,–
R128C,-0.446,-1.8,-1.47,-0.619,-2.29
R128E,-0.542,-1.41,-0.788,-1.45,-2.35
R128D,-1.93,-1.15,–,-0.905,-1.27
R128W,-1.2,-0.208,-1.24,-1.63,-1.91
R128T,0.264,-0.188,-0.733,–,-0.392
R128L,-0.795,–,-0.327,-0.787,–
R128S,0.549,-0.682,0.746,-1.91,–
R128K,-0.404,-0.498,-0.689,–,-0.118
R128Q,-0.516,-0.328,-0.738,-0.916,-1.15
R128F,-0.64,-0.86,-2.62,-0.505,-1.93
R128_F129insGSG,-2.23,0.286,–,-1.85,–
F129C,0.243,-0.972,-0.758,-0.843,–
F129V,-0.209,-0.337,0.041,-0.4,-2.14
F129L,-0.404,-0.466,-0.911,-0.635,-0.928
F129G,-1.38,-0.184,-1.74,-1.04,-1.92

Variant,cAMP reporter score ([1]; pH 5.5),cAMP reporter score ([1]; pH 6),"cAMP reporter score ([1]; pH 6, modulator: ogerin)","cAMP reporter score ([1]; pH 6.5, modulator: ogerin)",surface expression score [2]
F129T,-1.64,-1.12,-1.56,-0.136,-1.31
F129D,-2.88,0.185,-2.3,-1.66,-1.95
F129S,0.324,0.577,-0.963,-0.256,-1.06
F129R,-1.76,-1.5,-1.14,-1.97,-3.77
F129W,0.031,–,0.512,-0.64,-0.404
F129Y,0.617,–,1.02,0.299,-1.66
F129E,-1.3,-1.4,-1.86,-1.47,-2.73
F129P,-1.48,-1.63,-1.27,-2.13,-2.19
F129H,-0.317,-1.07,-0.817,-0.236,-2.94
F129K,-1.36,-1.23,-1.57,-1.42,-2.61
F129I,0.062,–,-0.829,-1.28,-2.39
F129N,-0.866,-1.24,-1.91,-0.935,-1.82
F129Q,-0.502,-0.718,-1.23,-0.254,-3.05
F129M,-1.86,-1.6,–,-0.898,-1.61
A137_V139del,-1.47,-1.17,-0.651,-0.44,-2.62
F132_R133del,-1.52,-1.6,-0.984,-0.78,-2.92
A124del,-0.764,-0.43,-1.14,-1.26,–
H125_P126insG,-0.408,-2.18,–,–,–
L135_K136del,-1.14,-1.11,-2,-1.29,-2.35
P126_R128del,-1.21,-0.528,-2.7,-1.16,-2.94
A138_V139insGS,-2.01,-0.895,–,-1.11,-1.61

# Scores whose standard error is large were omitted. Not listed are two conditions whose scores span a narrow range. Read del as a deletion of the residues named and ins as an insertion between two positions. For part of these data: The concentration of ogerin is not given here.
